In patent EP3916006A1, “PEPTIDES CAPABLE OF INDUCING ANOREXIC HORMONES, COMPOSITIONS AND USES THEREOF” (Consejo Superior de Investigaciones Científicas (CSIC), priority 2020, dated 2021):
Entries after “also recorded” stand apart in the source; their conditions may differ. At least one peptide structure holds a part that was inferred or is arguable (an end, a ring closure or a residue). Some compounds share one wording; it may come from a single statement. Peptide text beside a SMILES is read from it.

Legend:
Format in all cases: cell-based
STC-1 cells [1] = assay: GLP-1 secretion in enteroendocrine STC-1 cells (ELISA); details: 2 h incubation; for GPL-1: * = significant vs control; for GLP-1 secretion: result in words, vs control
STC-1 cells [2] = assay: CCK secretion in enteroendocrine STC-1 cells (EIA/ELISA); details: 2 h incubation; for CCK: * = significant vs control; for CCK secretion: result in words, vs control
STC-1 cells [3] = assay: GLP-1 secretion in STC-1 cells in presence of GPCR inhibitors (NPS2143, TC LPA5 4); details: peptide 0.125 mM; NPS2143 6 µM or TC LPA5 4 4 µM; result in words
STC-1 cells [4] = assay: CCK secretion in STC-1 cells in presence of GPCR inhibitors (NPS2143, TC LPA5 4); details: for CCK secretagogue effect when co-incubated with both inhibitors: peptide 0.125 mM, NPS2143 6 µM or TC LPA5 4 4 µM, result in words
[5] = peptide assayed concentration 1 mM
[6] = peptide assayed concentration 2 mM
[7] = peptide assayed concentration 0.125 mM
[8] = peptide assayed concentration 0.5 mM
[9] = peptide assayed concentration 0.25 mM

| Compound | GLP-1 secretion (STC-1 cells [1]) | CCK secretion (STC-1 cells [2]) | GPL-1 (STC-1 cells [1]; [6]) | CCK (STC-1 cells [2]; [6]) | GPL-1 (STC-1 cells [1]; [8]) | CCK (STC-1 cells [2]; [8]) | further results |
| --- | --- | --- | --- | --- | --- | --- | --- |
| C[C@@H](O)[C@H](NC(=O)CNC(=O)[C@H](CCCCN)NC(=O)[C@H](CS)NC(=O)[C@H](CCCNC(=N)N)NC(=O)[C@H](CC(N)=O)NC(=O)[C@H](CCCNC(=N)N)NC(=O)[C@@H](N)Cc1c[nH]c2ccccc12)C(=O)N[C@@H](CC(=O)O)C(=O)O [SEQ ID NO: 3, ^111WRNRCKGTD^119] (H-WRNRCKGTD-OH) | induced a significantly release | induced a significantly release |  |  |  |  | GPL-1 (STC-1 cells [1]; [5]): 884.7* pM; CCK (STC-1 cells [2]; [5]): 58.0* pM |
| CC[C@H](C)[C@H](NC(=O)[C@H](CCC(N)=O)NC(=O)[C@H](C)NC(=O)[C@@H]1CCCN1C(=O)[C@H](CO)NC(=O)[C@H](CCCNC(=N)N)NC(=O)[C@@H](NC(=O)[C@H](C)NC(=O)[C@H](C)NC(=O)[C@@H]1CCCN1)C(C)C)C(=O)N[C@@H](CC(C)C)C(=O)N[C@@H](CCC(N)=O)C(=O)O [SEQ ID NO: 8, ^64PAAVRSPAQILQ^75] (H-PAAVRSPAQILQ-OH) | induced the secretion | induced the secretion | 281.5* pM | 115.5* pM |  |  |  |
| CC(C)C[C@H](NC(=O)[C@H](Cc1ccc(O)cc1)NC(=O)[C@@H](N)CCCNC(=N)N)C(=O)NCC(=O)N[C@@H](Cc1ccc(O)cc1)C(=O)O [SEQ ID NO: 6, ^90RYLGY^94] (H-RYLGY-OH) | induced the secretion | induced the secretion | 113.5* pM | 127.4* pM |  |  |  |
| CC(C)C[C@H](NC(=O)[C@@H](N)C(C)C)C(=O)N[C@@H](CC(C)C)C(=O)N1CCC[C@H]1C(=O)N[C@@H](CC(=O)O)C(=O)O [SEQ ID NO: 13, ^244VLLPD^248] (H-VLLPD-OH) |  | provoked a significant CCK secretion | 39.8 pM | 69.5* pM | 36.8 pM | 64.1* pM | GPL-1 (STC-1 cells [1]; [7]): 48.2 pM; CCK (STC-1 cells [2]; [7]): 52.4* pM |
| CC(C)C[C@H](NC(=O)[C@H](Cc1ccc(O)cc1)NC(=O)[C@@H](N)CCCNC(=N)N)C(=O)NCC(=O)O [SEQ ID NO: 4, ^90RYLG^93] (H-RYLG-OH) | induced the secretion; also recorded: notable effect | induced the secretion; also recorded: notable effect | 567.1* pM | 385.5* pM |  |  |  |
| CC[C@H](C)[C@H](N)C(=O)N1CCC[C@H]1C(=O)N[C@@H](C)C(=O)N[C@H](C(=O)N[C@@H](Cc1ccccc1)C(=O)N[C@@H](CCCCN)C(=O)O)C(C)C [SEQ ID NO: 11, ^78IPAVFK^83] (H-IPAVFK-OH) |  |  | 125.0* pM | 40.9* pM | 49.3* pM | 20.2* pM |  |
| CC[C@H](C)[C@H](NC(=O)[C@H](CCCCN)NC(=O)[C@@H](NC(=O)[C@H](CCCCN)NC(=O)[C@H](CCC(=O)O)NC(=O)[C@H](C)N)[C@@H](C)O)C(=O)N1CCC[C@H]1C(=O)O [SEQ ID NO: 10, ^73AEKTKIP^79] (H-AEKTKIP-OH) |  | important CCK secretion | 59.0 pM | 260.7* pM |  |  |  |
| N=C(N)NCCC[C@H](NC(=O)[C@@H](N)CO)C(=O)N[C@@H](Cc1ccc(O)cc1)C(=O)N1CCC[C@H]1C(=O)N[C@@H](CO)C(=O)O [SEQ ID NO: 7, ^33SRYPS^37] (H-SRYPS-OH) | induced the secretion; also recorded: notable secretion | induced the secretion |  | 170.6* pM | 187.1* pM | 128.5* pM | GLP-1 secretagogue effect when co-incubated with both inhibitors (STC-1 cells [3]): reduced; CCK secretagogue effect when co-incubated with both inhibitors (STC-1 cells [4]): reduced |
| CC(C)C[C@H](NC(=O)[C@H](Cc1ccc(O)cc1)NC(=O)[C@@H](N)CCCNC(=N)N)C(=O)NCC(=O)N[C@@H](Cc1ccc(O)cc1)C(=O)N[C@@H](CC(C)C)C(=O)N[C@@H](CCC(=O)O)C(=O)O [SEQ ID NO: 5, ^90RYLGYLE^96] (H-RYLGYLE-OH) | induced the secretion | induced the secretion |  |  | 266.4* pM | 210.1* pM | GLP-1 secretagogue effect when co-incubated with both inhibitors (STC-1 cells [3]): too low to evaluate; CCK secretion (STC-1 cells [4]; peptide 0.125 mM + vehicle (DMSO), 1 h incubation): 198 pM; CCK secretion (STC-1 cells [4]; peptide 0.125 mM with NPS2143 at 6 µM, 1 h incubation after 20 min inhibitor): 88 pM; CCK secretion (STC-1 cells [4]; peptide 0.125 mM with TC LPA5 4 at 4 µM, 1 h incubation after 20 min inhibitor): 111 pM; CCK secretagogue effect when co-incubated with both inhibitors (STC-1 cells [4]): partially abolish |
| CC(C)[C@H](N)C(=O)N[C@@H](C)C(=O)N[C@@H](Cc1c[nH]c2ccccc12)C(=O)N[C@@H](CCCNC(=N)N)C(=O)N[C@@H](CC(N)=O)C(=O)N[C@@H](CCCNC(=N)N)C(=O)N[C@@H](CS)C(=O)N[C@@H](CCCCN)C(=O)NCC(=O)N[C@H](C(=O)N[C@@H](CC(=O)O)C(=O)O)[C@@H](C)O [SEQ ID NO: 2, ^109VAWRNRCKGTD^119] (H-VAWRNRCKGTD-OH) | induced a significantly release | induced a significantly release |  |  |  |  | GPL-1 (STC-1 cells [1]; [5]): 1,237.9* pM; CCK (STC-1 cells [2]; [5]): 79.0* pM |
| CC(C)C[C@H](NC(=O)[C@H](Cc1ccccc1)NC(=O)[C@@H]1CCCN1)C(=O)O [^364PFL^366] (H-Pro-Phe-Leu-OH) | marked GLP-1 secretion | slightly CCK secretion | 62.9* pM | 45.7* pM | 52.3* pM | 41.5 pM | GPL-1 (STC-1 cells [1]; [7]): 43.4 pM; CCK (STC-1 cells [2]; [7]): 34.4 pM |
| CC[C@H](C)[C@H](NC(=O)[C@@H](N)Cc1c[nH]c2ccccc12)C(=O)N[C@@H](CCCNC(=N)N)C(=O)NCC(=O)N[C@@H](CS)C(=O)N[C@@H](CCCNC(=N)N)C(=O)N[C@@H](CC(C)C)C(=O)O [SEQ ID NO: 1, ^123WIRGCRL^129] (H-WIRGCRL-OH) | induced a significantly release | induced a significantly release |  |  |  |  | GPL-1 (STC-1 cells [1]; [5]): 1,401.5* pM; CCK (STC-1 cells [2]; [5]): 133.9* pM |
| CC(C)C[C@H](NC(=O)CNC(=O)[C@H](CO)NC(=O)[C@@H](NC(=O)[C@H](CCC(=O)O)NC(=O)[C@H](CC(=O)O)NC(=O)[C@@H]1CCCN1C(=O)[C@H](CC(C)C)NC(=O)[C@H](CC(C)C)NC(=O)[C@@H](N)C(C)C)C(C)C)C(=O)O [SEQ ID NO: 12, ^244VLLPDEVSGL^253] (H-VLLPDEVSGL-OH) |  | provoked a significant CCK secretion | 37.8 pM | 84.7* pM | 40.0 pM | 69.5* pM | GPL-1 (STC-1 cells [1]; [7]): 41.2 pM; CCK (STC-1 cells [2]; [7]): 51.7* pM |
| CC[C@H](C)[C@H](NC(=O)[C@@H](N)CC(C)C)C(=O)N[C@H](C(=O)N[C@H](C(=O)N[C@@H](CCC(N)=O)C(=O)N[C@H](C(=O)N[C@@H](CCSC)C(=O)O)[C@@H](C)O)[C@@H](C)O)C(C)C [SEQ ID NO: 9, ^1LIVTQTM^7] (H-LIVTQTM-OH) | highly significant effect |  |  |  |  |  | GPL-1 (STC-1 cells [1]; [9]): 108.7* pM; GPL-1 (STC-1 cells [1]; [5]): 336.7* pM; CCK (STC-1 cells [2]; [9]): 25.1* pM; CCK (STC-1 cells [2]; [5]): 44.0* pM |
| CSCC[C@H](NC(=O)[C@H](CO)NC(=O)[C@H](C)NC(=O)[C@@H](NC(=O)[C@@H](N)CCCNC(=N)N)C(C)C)C(=O)N[C@@H](C)C(=O)N[C@@H](CO)C(=O)N[C@@H](CCC(=O)O)C(=O)N[C@@H](CCCCN)C(=O)O [SEQ ID NO: 14, ^219RVASMASEK^227] (H-RVASMASEK-OH) |  |  |  | 35.9 pM |  |  |  |
